Measured values as given in PMC4336329 (PLoS ONE, 2015).
About 14,000 (4.5%) of roughly 310,000 compounds showed an effect of 50% or more. Effects have a minus sign here. This is one part of the list.
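Further: peak tail current of the secondary pulse compared with the same well before compound.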

Each compound was assayed against human ether-à-go-go-related gene (hERG) potassium channel (human, UniProt Q12809) (assay: primary screen, population patch clamp on CHO cells stably expressing hERG).
human ether-à-go-go-related gene (hERG) potassium channel, sequence (Q12809 whole entry, looked up): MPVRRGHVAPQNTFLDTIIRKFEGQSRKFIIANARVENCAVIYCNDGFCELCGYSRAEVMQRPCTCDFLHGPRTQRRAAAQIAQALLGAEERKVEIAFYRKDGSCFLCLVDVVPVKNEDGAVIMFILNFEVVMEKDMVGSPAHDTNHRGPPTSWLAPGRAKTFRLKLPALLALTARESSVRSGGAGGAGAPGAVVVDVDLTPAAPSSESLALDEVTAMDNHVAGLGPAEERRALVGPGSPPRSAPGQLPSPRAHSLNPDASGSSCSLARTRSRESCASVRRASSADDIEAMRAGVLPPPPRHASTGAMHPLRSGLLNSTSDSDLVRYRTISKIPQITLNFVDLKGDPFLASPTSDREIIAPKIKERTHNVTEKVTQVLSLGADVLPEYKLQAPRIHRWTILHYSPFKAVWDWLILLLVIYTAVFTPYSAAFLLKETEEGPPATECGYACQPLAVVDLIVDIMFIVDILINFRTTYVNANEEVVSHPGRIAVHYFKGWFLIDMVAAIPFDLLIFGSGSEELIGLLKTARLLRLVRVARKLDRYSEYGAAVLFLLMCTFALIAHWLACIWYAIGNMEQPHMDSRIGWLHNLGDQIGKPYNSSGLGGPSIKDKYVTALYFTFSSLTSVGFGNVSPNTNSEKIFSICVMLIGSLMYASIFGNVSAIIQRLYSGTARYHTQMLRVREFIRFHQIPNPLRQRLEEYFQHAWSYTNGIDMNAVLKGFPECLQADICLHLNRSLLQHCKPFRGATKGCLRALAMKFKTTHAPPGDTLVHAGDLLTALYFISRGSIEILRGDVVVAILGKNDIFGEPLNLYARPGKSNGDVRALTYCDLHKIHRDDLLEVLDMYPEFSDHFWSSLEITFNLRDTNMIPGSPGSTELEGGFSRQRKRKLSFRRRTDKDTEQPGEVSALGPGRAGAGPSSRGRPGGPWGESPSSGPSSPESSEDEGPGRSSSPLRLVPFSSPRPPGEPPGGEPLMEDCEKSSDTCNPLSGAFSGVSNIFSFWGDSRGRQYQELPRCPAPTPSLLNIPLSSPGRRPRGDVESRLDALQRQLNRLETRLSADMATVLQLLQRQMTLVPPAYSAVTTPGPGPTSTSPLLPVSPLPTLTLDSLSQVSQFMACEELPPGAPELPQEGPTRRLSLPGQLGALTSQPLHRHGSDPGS
`COc1ccc(NC(=S)NC(NC(=O)c2ccc(Cl)cc2Cl)C(Cl)(Cl)Cl)c([N+](=O)[O-])c1` (stereo not drawn) was tested, and the “hERG current change (%, negative = inhibition) at 10uM” value was 10.9%.
For `CC(C)(C)C(=O)Nc1ccc(-c2csnn2)cc1`, the “hERG current change (%, negative = inhibition) at 10uM” value was 8.19%.
With `Cc1ccc(C(=O)N2C3C=CC(C3)C2(C(F)(F)F)C(F)(F)F)cc1` (stereo not drawn) the “hERG current change (%, negative = inhibition) at 10uM” value was -12%.
With `CC(=O)NC(CSc1cc(C)nc2ccc(Br)cc12)C(=O)O` (stereo not drawn) the “hERG current change (%, negative = inhibition) at 10uM” value was 13.1%.
In the case of `O=C(O)CNc1ccc(S(=O)(=O)C(F)(F)F)cc1[N+](=O)[O-]`, the “hERG current change (%, negative = inhibition) at 10uM” value is reported as -5.66%.
`COc1ccc(NC(=S)Nc2cccc(C)n2)cc1` was tested, and the “hERG current change (%, negative = inhibition) at 10uM” value was 7.19%.
With `COc1ccc(CN(C(C)=O)c2ccccc2C(=O)O)cc1` the “hERG current change (%, negative = inhibition) at 10uM” value was 3.15%.
`CC(C)(C)c1ccc(Oc2ncccc2NC(=O)c2cccs2)cc1` was tested, and the “hERG current change (%, negative = inhibition) at 10uM” value was -1.31%.
With `CCC(c1nnnn1Cc1ccco1)N1CCN(C(=O)c2ccco2)CC1.Cl` (stereo not drawn) the “hERG current change (%, negative = inhibition) at 10uM” value was -20.6%.
`CN(c1ccccc1C(=O)O)S(C)(=O)=O` was tested, and the “hERG current change (%, negative = inhibition) at 10uM” value was 15.8%.
For `COc1ccc(Cl)cc1NC(=S)NNC(=O)CC(C)C`, the “hERG current change (%, negative = inhibition) at 10uM” value was 12.7%.
For `O=c1oc2ccccc2c2c1ncn2C1CCCCC1`, the “hERG current change (%, negative = inhibition) at 10uM” value was -51.7%.
For `COc1ccccc1NC(=O)c1ccccc1-c1nc(-c2ccccc2OC)no1`, the “hERG current change (%, negative = inhibition) at 10uM” value was -57.7%.
In the case of `Clc1cc(Cl)cc(CSc2nnc(-c3sccc3-n3cccc3)o2)c1`, the “hERG current change (%, negative = inhibition) at 10uM” value is reported as 3.61%.
`CC(NC(=O)CN(C)CC(=O)Nc1ccc(F)c(F)c1F)c1ccccc1` (stereo not drawn) was tested, and the “hERG current change (%, negative = inhibition) at 10uM” value was 10.2%.
With `O=C(Cc1ccsc1)NNC(=O)c1ccccc1Cl` the “hERG current change (%, negative = inhibition) at 10uM” value was 3.62%.
`O=C(NCCCc1ccccc1)Nc1cccc(Cl)c1` was tested, and the “hERG current change (%, negative = inhibition) at 10uM” value was -6.83%.
With `CC1=NNC(=O)C1CCC(=O)N/N=C/c1ccc(Cl)cc1` (stereo not drawn) the “hERG current change (%, negative = inhibition) at 10uM” value was 27.8%.
In the case of `Cc1c(Cl)cccc1NC(=O)Nc1cnccn1`, the “hERG current change (%, negative = inhibition) at 10uM” value is reported as 15.3%.
In the case of `CC(=O)c1ccc(NC(=O)c2ccccc2-c2ccccc2C(=O)O)cc1`, the “hERG current change (%, negative = inhibition) at 10uM” value is reported as 20.9%.
In the case of `CC1=C(C(N)=O)C(c2ccccc2[N+](=O)[O-])n2ncnc2N1` (stereo not drawn), the “hERG current change (%, negative = inhibition) at 10uM” value is reported as 7.69%.
In the case of `O=C1CC(/C=C/c2ccccn2)=Nc2ccccc2N1`, the “hERG current change (%, negative = inhibition) at 10uM” value is reported as 12%.
With `CC(C)CCOc1ccc(C(=O)O)cc1` the “hERG current change (%, negative = inhibition) at 10uM” value was 17.2%.
`CN(C)CCCN(Cc1ccccc1)C(=S)Nc1cccc(C(F)(F)F)c1` was tested, and the “hERG current change (%, negative = inhibition) at 10uM” value was -52.6%.
In the case of `COC(=O)C(C)N(C(=O)c1ccc(C(=O)c2ccccc2)cc1)c1c(C)cccc1C` (stereo not drawn), the “hERG current change (%, negative = inhibition) at 10uM” value is reported as -16.7%.
In the case of `O=C(C1CC1)N1CCN(c2nc3ccccc3s2)CC1`, the “hERG current change (%, negative = inhibition) at 10uM” value is reported as -25.5%.
With `N#Cc1ccccc1Sc1ccccc1C(=O)OCC(=O)NC1CCS(=O)(=O)C1` (stereo not drawn) the “hERG current change (%, negative = inhibition) at 10uM” value was 10.4%.
With `CCOC(=O)CC1C(=O)NCCN1S(=O)(=O)c1cc(Cl)c(Cl)cc1Cl` (stereo not drawn) the “hERG current change (%, negative = inhibition) at 10uM” value was -26.5%.
With `CCOC(CNC(=O)CN1C(=O)COc2ccc(S(=O)(=O)N3CC(C)CC(C)C3)cc21)OCC` (stereo not drawn) the “hERG current change (%, negative = inhibition) at 10uM” value was 10.1%.
In the case of `CC(C)c1ccc(OCC(=O)NNC(=O)c2cnccn2)cc1`, the “hERG current change (%, negative = inhibition) at 10uM” value is reported as 2.59%.
In the case of `OCC(Cc1ccccc1)Nc1c2ccccc2nc2ccccc12` (stereo not drawn), the “hERG current change (%, negative = inhibition) at 10uM” value is reported as -71.2%.
`Cc1ccc(NC(=O)COC(=O)Cn2nc(C)c([N+](=O)[O-])c2C)c([N+](=O)[O-])c1` was tested, and the “hERG current change (%, negative = inhibition) at 10uM” value was 15.3%.
With `CCN1CCN(S(=O)(=O)c2ccc(-c3cc(C)no3)s2)CC1` the “hERG current change (%, negative = inhibition) at 10uM” value was 1.9%.
With `Cn1cc(S(=O)(=O)N2CCc3ccccc32)cc1C(=O)Nc1ccc(Cl)cc1` the “hERG current change (%, negative = inhibition) at 10uM” value was 2.62%.
With `Cc1cccc(C(=O)OCC(=O)N2CCCCCC2)c1O` the “hERG current change (%, negative = inhibition) at 10uM” value was 2.78%.
For `COC(=O)C1=C(C)OC(N)=C(C#N)C1c1cccnc1` (stereo not drawn), the “hERG current change (%, negative = inhibition) at 10uM” value was 13.3%.
In the case of `O=C(NC1CC1)C1=C[C@H](c2csc3ccccc23)C[C@H](OCc2ccc(CO)cc2)O1`, the “hERG current change (%, negative = inhibition) at 10uM” value is reported as -30%.
In the case of `O=C(COc1ccc(Br)cc1)c1ccc2c(c1)CCCC2`, the “hERG current change (%, negative = inhibition) at 10uM” value is reported as -1.14%.
With `COCC(C)n1c(C)cc(C(=O)CSc2cc(C)c3ccccc3n2)c1C` (stereo not drawn) the “hERG current change (%, negative = inhibition) at 10uM” value was 4.64%.
For `CC1(C)CC2CC(C)(CN2C(=O)c2cc(-c3ccc(F)cc3)on2)C1` (stereo not drawn), the “hERG current change (%, negative = inhibition) at 10uM” value was 6.4%.
With `O=C(Nc1ccc(N2CCN(c3ccc(C(F)(F)F)cn3)CC2)nc1)c1cccs1` the “hERG current change (%, negative = inhibition) at 10uM” value was 6.54%.
With `COc1ccc(OCC(O)CN(CCO)CC(O)Cn2ccc3ccccc32)cc1` (stereo not drawn) the “hERG current change (%, negative = inhibition) at 10uM” value was -16.5%.
`O=S(=O)(c1ccc2c(c1)CCN2)N1CCCC1` was tested, and the “hERG current change (%, negative = inhibition) at 10uM” value was -1.58%.
For `C=C(C)CSc1nc2nc(C)cc(C)n2n1`, the “hERG current change (%, negative = inhibition) at 10uM” value was 4.09%.
With `CN(C)S(=O)(=O)c1ccc(C(=O)Nc2ccc(S(=O)(=O)NC3=NCCCCC3)cc2)cc1` the “hERG current change (%, negative = inhibition) at 10uM” value was -10.3%.
